Data on 93 molecules can be found in PubChem BioAssay AID1956 (SRMLSC, 2009).

SMILES strings stand for the structures. This is one part of the list. Further columns of the screen follow, without active or inactive calls.

A short description of the experiment: compounds boosting herpes simplex virus growth – fold increase, host cell viability (AID 1956). Further: tested in PC3 cells. Particulars: HSV replication augmentation in cells; fold increase: measured here: primary screen fold increase 10 uM, at 10 µM, stronger effect = higher value; viability: measured here: host cell viability series, at 25 µM, stronger effect = lower value.
In the case of `Fc1cccc(-n2c(-c3ccco3)nc3nc4ccccc4nc32)c1`, the fold increase is 2.26 and the viability stood at 100%. As to `CC(C)OC(=O)CC(=O)c1sc2nc3c(cc2c1N)CN(C)CC3`, the fold increase stood at 1.74 and the viability came out at 90.7%. For the molecule `CCOc1c(CNCCN2CCOCC2)cccc1OC`, the fold increase was 1.32. On to `CCOc1ccc(CN2CCN(Cc3nc(C(C)C)cs3)CC2CCO)cc1` (centres undefined), for which the fold increase is 1.34 and the viability came out at 93.4%.

For `CC1=CC2=NC(=O)/C(=C/c3coc4ccc(Cl)cc4c3=O)C(=N)N2O1`, the fold increase was determined as 1.99 and the viability worked out at 97.2%.

In the case of `CNC(=S)NNC(=O)c1ccc(=O)n(Cc2ccc(Cl)cc2Cl)c1`, the fold increase came out at 1.45 and the viability was 76.5%. For `Cn1c(=O)c(C(=O)CN2CCCCCC2)c(N)n(Cc2ccccc2)c1=O`, the fold increase worked out at 1.58 and the viability was found to be 92.3%. As to `Fc1ccc(Br)cc1C1C=C(c2ccc(Br)s2)Nc2ncnn21` (centres undefined), the fold increase was determined as 1.95. `COc1ccc(S(=O)(=O)N2CN(CCc3ccc(OC)c(OC)c3)c3nc4ccccc4nc32)cc1`: the fold increase turned out to be 1.34 and the viability worked out at 95.9%. For `Brc1ccc(C2=CC(c3ccco3)n3ncnc3N2)cc1` (centres undefined), the fold increase was 1.69.

Consider `O=C(CSc1nnc(-c2cccnc2)n1C1CCCCC1)NC1CCCC1`, for which the fold increase turned out to be 1.35 and the viability is 100%. For `O=C(Cc1nc2ccccc2[nH]c1=O)c1ccc(Cl)cc1` the same measures were 2.33 and 90.7%. In the case of `O=C1CC(N2CCN(Cc3ccccc3)CC2)C(=O)N1CCc1ccccc1` (centres undefined), the fold increase is 1.36 and the viability was determined as 93.8%. Turning to `COC(=O)C(C(C)=O)C1=C/C(=N\S(=O)(=O)c2ccc(C)cc2)c2ccccc2C1=O` (centres undefined), the fold increase was 1.99 and the viability was 89.7%. For `O=C1c2cccc3c(N4CCCCC4)ccc(c23)C(=O)N1CCO`, the fold increase is 3.27 and the viability stood at 81.8%. For `Clc1ccc(C2=CC(c3ccco3)n3ncnc3N2)cc1` (centres undefined) the same measures were 1.07 and 92.5%. In the case of `O=C(C1=NN(c2ccccc2)C2C(=O)N(c3ccccc3Cl)C(=O)C12)c1ccccc1` (centres undefined), the fold increase was 5.23 and the viability was found to be 95.1%. Consider `O=C(Nc1ccc(F)cc1)N1CCn2c(nc3ccccc32)C1`, for which the fold increase was found to be 1.37 and the viability was found to be 92%. For `N#CC(C#N)=C1C=CC=CN1/C(=C\c1ccccc1)C(=O)c1cccs1` the same measures were 1.38 and 92.8%. For the molecule `N#C/C(=C\c1ccccc1[N+](=O)[O-])C(=O)NC1CCCCC1`, the fold increase turned out to be 1.52 and the viability is 64.7%. Turning to `Cc1nnc(SCc2cc([N+](=O)[O-])cc3c2OCOC3)n(N)c1=O`, the fold increase was 1.34 and the viability was determined as 84.7%. Regarding `CC1(C)CC(=O)C(C=Nc2cc(C(=O)c3ccccc3)ccc2N)=C(O)C1`, the fold increase is 2.06 and the viability is 89.9%. For `Cn1/c(=N/N=C/c2ccc([N+](=O)[O-])cc2)sc2ccccc21`, the fold increase stood at 1.43.

`O=C1c2cccc3c([N+](=O)[O-])ccc(c23)C(=O)N1CCc1ccccn1`: the fold increase worked out at 3.76 and the viability was determined as 52.8%. With `CN1CC=C2C(C#N)=C(N)C(C#N)(C#N)C(c3ccsc3)C2C1` (centres undefined), the fold increase worked out at 1.46 and the viability was 86.9%. Take `Cc1ccc(-c2cc(C(=O)N/N=C/c3c(C)nn(C)c3C)c3ccccc3n2)cc1C`: the fold increase was found to be 1.23. Regarding `COc1cccc2c1C(=O)c1c(O)c3c(c(O)c1C2=O)C[C@@](O)(C(=O)CO)C[C@@H]3O[C@H]1C[C@H](N)[C@@H](O)[C@H](C)O1`, the fold increase came out at 3.18 and the viability is 34%.

`CC1SCC(NC(=O)c2ccccc2Cl)CS1` (centres undefined): the fold increase was 1.37 and the viability came out at 102%. In the case of `CCCCOC(=S)NC(=O)c1sc2ccccc2c1Cl`, the fold increase came out at 1.47 and the viability was found to be 99.9%. With `COc1cccc(N2C(=O)C3NN=C(C(=O)CN4C(=O)c5ccccc5C4=O)C3C2=O)c1` (centres undefined), the fold increase is 1.33 and the viability was determined as 99.1%. For `COc1cc(C=C2C(=O)c3ccccc3C2=O)cc(OC)c1`, the fold increase amounted to 1.71 and the viability was 104%. For `COc1cccc(CNC(=O)CCC2CCCN(C(=O)C3=CC(=O)CC(C)(C)O3)C2)c1` (centres undefined) the same measures were 1.35 and 96%. In the case of `CN1CCN(CC(=O)Nc2c(C#N)cnn2-c2ccccc2)CC1`, the fold increase turned out to be 1.44 and the viability is 99%. Consider `Cc1nc2ccc(Br)cn2c1NC(C)(C)C`, for which the fold increase is 1.34 and the viability is 92.7%. As to `CC1CC1c1ccc(/C=C(\C#N)C(=O)Nc2cc(Cl)ccc2Cl)o1` (centres undefined), the fold increase amounted to 2.08 and the viability is 109%. For `COc1ccc2c(c1)CC/C(=C\c1ccc(C)o1)C2=O` the same measures were 1.34 and 98%. For `CC(C)(C)c1ccc(S(=O)(=O)C(C)(C)C)cc1` the same measures were 1.4 and 90%. On to `COc1cc2c3nnc(-c4ccc(F)cc4)c-3cn(Cc3ccccc3F)c2cc1OC`, for which the fold increase is 2.65. Regarding `Cc1[nH]n(-c2ccccc2)c(=O)c1N=Nc1ccccc1O`, the fold increase came to 1.72 and the viability amounted to 8.46%. For the molecule `O=C(O)c1cn(-c2ccc(N3CCCC3)c(F)c2)c2c(F)c(F)c(F)cc2c1=O`, the fold increase amounted to 1.39.

Take `Cc1cc(Cl)ccc1OCC(=O)N1CCCCC1`: the fold increase came to 1.08 and the viability turned out to be 105%.

`CCOc1ccc2c(c1)C(c1ccc(C)cc1)=NNC(c1ccc(C)cc1)=N2`: the fold increase came out at 1.1. In the case of `COc1ccc(/C=C(/C(=O)c2cccs2)N2C=CC=CC2=C(C#N)C#N)cc1`, the fold increase stood at 1.89 and the viability turned out to be 95.6%. Regarding `Cc1ccc2[nH]c(=O)c(CN(Cc3cccs3)Cc3nnnn3Cc3ccccc3)cc2c1`, the fold increase turned out to be 1.38 and the viability was found to be 92%. Take `N#C/C(=C/c1ccc(N2CCOCC2)o1)c1nc2ccccc2[nH]1`: the fold increase is 7.65 and the viability is 84.4%. Turning to `CCCCCCN1C=C/C(=C\C=C(C#N)C#N)c2ccccc21`, the fold increase was determined as 2.26 and the viability amounted to 87.9%. `O=C(N/N=C\c1c(O)ccc2ccccc12)c1ccc(Cn2cccn2)o1`: the fold increase was determined as 1.38. In the case of `CCN(CC)c1nc2c3c(nc4c(c3c1C#N)CC(=O)N4c1ccc(Cl)cc1)NC(C)=N2`, the fold increase amounted to 1.38. As for `Cc1ccc2[nH]c(C(=O)O)c(NC(=O)[C@@H]3C[C@@H]3c3ccccc3)c2c1`, the fold increase was 1.39 and the viability came to 98.9%.

Consider `CCCCCCN1C=CC=C/C1=C\C=C(C#N)C#N`, for which the fold increase was 2.68 and the viability came out at 89.2%. With `COc1ccc(Br)cc1S(=O)(=O)N1CCOCC1`, the fold increase worked out at 1.32 and the viability turned out to be 107%. For the molecule `CC(=O)CC1(C)OC(N)=C(C#N)C1(C#N)C#N` (centres undefined), the fold increase came out at 1.38 and the viability worked out at 94.9%. Consider `COc1ccc(CNC(=O)CSCc2cnn(-c3ccccc3)c2-n2cccc2)cc1`, for which the fold increase is 1.41 and the viability amounted to 103%. On to `CCOC(=O)Cc1csc(N/C(=N/S(=O)(=O)c2ccc(F)cc2F)c2ccccc2)n1`, for which the fold increase is 1.35 and the viability came out at 103%. `Cc1noc(C)c1C(=O)Nc1sc(C)c(C)c1C#N`: the fold increase turned out to be 2.28 and the viability came to 92.6%. In the case of `CCOC(=O)C1=C(O)c2ccccc2C(=O)/C1=C\c1ccc(C)cc1`, the fold increase is 1.35 and the viability was found to be 95.6%. As to `Cc1ccc(C(=O)CSC2=C(C#N)C(c3ccco3)C3=C(CC(C)(C)CC3=O)N2)cc1` (centres undefined), the fold increase is 1.2. For `COc1ccccc1N/C=C/c1onc(C)c1[N+](=O)[O-]`, the fold increase came out at 1.67 and the viability worked out at 62%.

For the molecule `Cn1cccc1/C=C1\SC(=S)N(Nc2ccccc2)C1=O`, the fold increase turned out to be 1.35 and the viability is 96.7%. For `O=C(Nc1cccc(-c2nnc(-c3ccco3)o2)c1)C(c1ccccc1)c1ccccc1`, the fold increase was 0.993. `CCCCC(=O)NC(=S)NNC(=O)CC`: the fold increase came to 2.2. Regarding `CCCCOC(=O)N1CCOCCOCCOCCOCC1`, the fold increase was determined as 1.48 and the viability came to 94%.

As to `Cc1ccc(-n2nc3cc(C)c(N)cc3n2)cc1`, the fold increase is 1.05. `Cc1ccc(SCC(=O)Nc2ccc(-c3nnc(-c4ccco4)o3)cc2)cc1`: the fold increase turned out to be 1.14. As for `CC(C)=C1C(=O)NN(c2ccc(F)c(Cl)c2)C1=O`, the fold increase turned out to be 1.46 and the viability worked out at 102%. As for `CC1=CC(=O)C(C(C)C)=C/C1=N\OC(=O)c1cccc2nc(C)oc12`, the fold increase worked out at 1.4. For `Cc1cccc(C)c1NC(=O)COC(=O)c1c2c(nc3ccccc13)/C(=C\c1ccc3c(c1)OCO3)CCC2`, the fold increase is 6.57. For `O=C(CCSc1nnc2scc(-c3ccccc3)n12)NCc1ccc2c(c1)OCO2`, the fold increase is 1.32 and the viability turned out to be 97.3%.

In the case of `C=CCN(CC=C)C(=O)C(=O)c1ccn(-c2c(C)csc2C(=O)OC)c1`, the fold increase was found to be 1.35 and the viability amounted to 99%. Consider `CCCc1ccc(/C=C2\C(=O)c3ccccc3C(O)=C2C(=O)OCC)cc1`, for which the fold increase was 1.81 and the viability amounted to 86.6%.

Consider `CC(=O)c1ccc(Nc2c3c(c(C#N)c4nc5ccccc5n24)CCC3)cc1`, for which the fold increase was found to be 1.65 and the viability stood at 94.5%. Take `Cc1cccc(NC(=S)NC(=O)c2cc(-c3ccccc3)nc3ccccc23)c1`: the fold increase turned out to be 1.21. Regarding `CN1CCN(C(=O)c2ccc(C(F)(F)F)cc2)CC1`, the fold increase stood at 1.33 and the viability stood at 94.5%. For the molecule `Cc1ccc(-n2ncc3c(=O)n(CC(=O)Nc4cccc(Cl)c4)cnc32)cc1C`, the fold increase was found to be 1.15. `CCCCn1c(/N=C/c2ccccc2NS(=O)(=O)c2ccc(C)cc2)nc2ccccc21`: the fold increase worked out at 1.39 and the viability was found to be 89.3%. As for `CCOCCCn1cnc2c(c1=O)c1nc3ccccc3nc1n2-c1ccccc1`, the fold increase stood at 1.43 and the viability amounted to 100%.

For `CC(C)c1ccc(/C=C2\Oc3c(ccc(O)c3CN3CCN(C)CC3)C2=O)cc1`, the fold increase amounted to 1.37 and the viability was 98.2%. Consider `CCn1c(=O)cc(SCC(=O)N2CCCCC2)c2ccccc21`, for which the fold increase was 1.41 and the viability worked out at 90%. Turning to `COc1ccccc1NC(=O)CC1Nc2ccccc2NC1=O` (centres undefined), the fold increase worked out at 1.32 and the viability worked out at 96.6%. As for `Cc1cc(C=C2C(=O)CCCC2=O)c(C)n1-c1ccccc1`, the fold increase was 1.49 and the viability is 104%.

In the case of `CC(=O)Oc1ccc(Cl)cc1/C=C/c1cc(OC(C)=O)c2ccccc2n1`, the fold increase amounted to 2.4 and the viability came out at 67.2%.

In the case of `CN1CC=C2C(C#N)=C(N)C(C#N)(C#N)[C@H](c3ccoc3)[C@H]2C1`, the fold increase was found to be 1.38. As for `CCN1/C(=C\c2ccc3cc(C)ccc3[n+]2CC)Sc2cc(C)c(C)cc21`, the fold increase came out at 7.96. With `O=C(O)c1ccc(/C=N/Nc2ncc(C(F)(F)F)cc2Cl)cc1`, the fold increase was found to be 1.34 and the viability turned out to be 95.9%. Consider `COC(=O)C1=COC(C)C2CN3CCc4c([nH]c5cc(OC)c(OC)cc45)C3CC12` (centres undefined), for which the fold increase came to 1.72 and the viability worked out at 99.1%. For `Cc1ccc(C(=O)COC(=O)c2cccc(N3C(=O)c4c(C)nc5ccccc5c4C3=O)c2)cc1C` the same measures were 1.38 and 99%. For `COc1ccc(/C=c2\s/c(=C/C(=O)c3ccc(C)cc3)[nH]c2=O)c(OC)c1` the same measures were 5.41 and 89.7%. For `Cc1c(-c2ccc(/C=N/NC(=O)C(=O)Nc3ccccc3F)o2)cccc1[N+](=O)[O-]` the same measures were 1.48 and 93.3%.

As to `Cc1ccc(C2=CC(c3ccc(N(C)C)cc3)n3nnnc3N2)cc1` (centres undefined), the fold increase came out at 1.57 and the viability stood at 92.2%. As for `O=C1C(C2=C(O)c3ccccc3C2=O)=Nc2ccccc21`, the fold increase came out at 2.02 and the viability stood at 27.7%. As to `COc1ccc(CN2C(=O)Cc3c2nc(N)c2c(N)nc(N4CCCCC4)c(C#N)c32)cc1`, the fold increase was 1.65 and the viability is 95.5%. For the molecule `CN(c1ccccc1)c1ccc(/C=c2\s/c(=C(/C#N)C(=O)C(C)(C)C)n(Cc3ccco3)c2=O)cc1`, the fold increase stood at 2.62 and the viability worked out at 95.4%.

In the case of `O=C(NNC1=Nc2cccc3cccc1c23)c1ccccc1Br`, the fold increase worked out at 3.09.

What is called viability is a read-out of living cells in per cent, often relative to untreated cells.
